{"source": "paper PMC4300089", "about": "“Structure-Guided Design of Selective Epac1 and Epac2 Agonists” (PLoS Biology, 2015)", "target": "T1, Epac2^Δ280 (Mus musculus, UniProt Q9EQZ6)", "T1 construct": "made in house", "T1 sequence (Q9EQZ6 281-993 isoform Q9EQZ6-3)": "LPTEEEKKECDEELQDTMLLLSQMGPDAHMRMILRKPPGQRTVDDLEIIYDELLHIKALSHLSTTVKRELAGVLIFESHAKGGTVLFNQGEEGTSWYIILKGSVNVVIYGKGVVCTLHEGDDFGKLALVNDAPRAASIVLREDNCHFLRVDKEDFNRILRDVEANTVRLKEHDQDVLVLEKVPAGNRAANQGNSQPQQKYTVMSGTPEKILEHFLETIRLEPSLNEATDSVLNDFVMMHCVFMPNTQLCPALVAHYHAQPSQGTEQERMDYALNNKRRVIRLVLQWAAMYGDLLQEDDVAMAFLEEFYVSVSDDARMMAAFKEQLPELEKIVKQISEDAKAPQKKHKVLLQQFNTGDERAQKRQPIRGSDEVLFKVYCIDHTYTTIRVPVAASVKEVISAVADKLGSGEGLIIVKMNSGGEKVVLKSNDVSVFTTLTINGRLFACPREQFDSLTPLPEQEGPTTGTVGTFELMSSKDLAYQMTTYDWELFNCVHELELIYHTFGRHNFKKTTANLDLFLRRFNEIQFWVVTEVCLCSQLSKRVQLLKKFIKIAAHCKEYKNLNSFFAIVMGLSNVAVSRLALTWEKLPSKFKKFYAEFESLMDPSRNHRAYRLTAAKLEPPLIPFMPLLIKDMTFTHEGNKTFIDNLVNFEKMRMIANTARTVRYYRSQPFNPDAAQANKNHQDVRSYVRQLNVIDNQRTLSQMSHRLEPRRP", "assay": "Epac activation assay (Rap1B•mGDP fluorescence nucleotide exchange), Epac2^Δ280", "format": "biochemical", "protocol": "Murine Epac2 was used as all previous structural studies were performed with it.\nThe activity of Epac was determined by a fluorescence assay. […] The fluorescence intensity of Rap1B•mGDP is approximately twice that of free mGDP, and thus, nucleotide exchange can be observed as a decay in fluorescence upon the addition of excess unlabeled GDP.", "note": "The source gives many values for each of these; only a part stands here.", "data": [{"smiles": "Nc1ncnc2c1nc(SCc1ccccc1)n2[C@@H]1O[C@@H]2CO[P@](O)(=S)O[C@H]2[C@H]1O", "note": "[S-220, Sp-8-BnT-cAMPS]", "values": [{"measurement": "kobs", "setting": "0.003 μM compound", "result": "6.6e-05", "unit": "s⁻¹"}, {"measurement": "kobs", "setting": "0.005 μM compound", "result": "8.7e-05", "unit": "s⁻¹"}, {"measurement": "kobs", "setting": "0.008 μM compound", "result": 0.000124, "unit": "s⁻¹"}, {"measurement": "kobs", "setting": "0.01 μM compound", "result": 0.000139, "unit": "s⁻¹"}, {"measurement": "kobs", "setting": "0.02 μM compound", "result": 0.000268, "unit": "s⁻¹"}, {"measurement": "kobs", "setting": "0.03 μM compound", "result": 0.000364, "unit": "s⁻¹"}, {"measurement": "kobs", "setting": "0.8 μM compound", "result": 0.00192, "unit": "s⁻¹"}, {"measurement": "kobs", "setting": "1 μM compound", "result": 0.00206, "unit": "s⁻¹"}, {"measurement": "kobs", "setting": "2 μM compound", "result": 0.00234, "unit": "s⁻¹"}, {"measurement": "kobs", "setting": "3 μM compound", "result": 0.00241, "unit": "s⁻¹"}, {"measurement": "kobs", "setting": "4 μM compound", "result": 0.00238, "unit": "s⁻¹"}, {"measurement": "kobs", "setting": "5 μM compound", "result": 0.00238, "unit": "s⁻¹"}, {"measurement": "kobs", "setting": "6 μM compound", "result": 0.00231, "unit": "s⁻¹"}, {"measurement": "kobs", "setting": "7 μM compound", "result": 0.00237, "unit": "s⁻¹"}, {"measurement": "kobs", "setting": "8 μM compound", "result": 0.00235, "unit": "s⁻¹"}, {"measurement": "kobs", "setting": "10 μM compound", "result": 0.00231, "unit": "s⁻¹"}]}, {"smiles": "Nc1ncnc2c1ncn2[C@@H]1O[C@@H]2COP(=O)(O)O[C@H]2[C@H]1O", "note": "[cAMP, reference compound]", "values": [{"measurement": "kobs", "setting": "0.01 μM compound", "result": "2.7e-05", "unit": "s⁻¹"}, {"measurement": "kobs", "setting": "0.05 μM compound", "result": "3.5e-05", "unit": "s⁻¹"}, {"measurement": "kobs", "setting": "0.08 μM compound", "result": "4.1e-05", "unit": "s⁻¹"}, {"measurement": "kobs", "setting": "0.1 μM compound", "result": "4.5e-05", "unit": "s⁻¹"}, {"measurement": "kobs", "setting": "0.2 μM compound", "result": "6.7e-05", "unit": "s⁻¹"}, {"measurement": "kobs", "setting": "0.3 μM compound", "result": "8.4e-05", "unit": "s⁻¹"}, {"measurement": "kobs", "setting": "40 μM compound", "result": 0.000337, "unit": "s⁻¹"}, {"measurement": "kobs", "setting": "50 μM compound", "result": 0.000335, "unit": "s⁻¹"}, {"measurement": "kobs", "setting": "60 μM compound", "result": 0.000327, "unit": "s⁻¹"}, {"measurement": "kobs", "setting": "70 μM compound", "result": 0.000333, "unit": "s⁻¹"}, {"measurement": "kobs", "setting": "80 μM compound", "result": 0.000332, "unit": "s⁻¹"}, {"measurement": "kobs", "setting": "100 μM compound", "result": 0.000328, "unit": "s⁻¹"}]}]}
